{"source": "ChEMBL document CHEMBL4888484", "about": "“Replenishing the malaria drug discovery pipeline: Screening and hit evaluation of the MMV Hit Generation Library 1 (HGL1) against asexual blood stage Plasmodium falciparum ,using a nano luciferase reporter read-out” (2022)", "note": "Among all 150,000 compounds or so, about 540 (0.36%) showed an effect of 50% or more. This is one part of the list.", "data": [{"test_system": "Plasmodium falciparum", "assay": "Primary screen in NF54 nanoGlo assay, in single point, at 2uM, 72h; a lower Z score goes with more inhibition", "format": "functional, Erythrocyte", "conditions": "timepoint 72 hour", "units": {"% Inhibition": "%"}, "values": [{"smiles": "Cc1cc(C)c(S(=O)(=O)Cc2ccccc2)c(O)n1", "% Inhibition": 32, "Z score": -0.52}, {"smiles": "Cc1nc(CCNC(=O)c2ccc(Cl)o2)cs1", "% Inhibition": -16, "Z score": 1.63}, {"smiles": "COc1ccccc1N(Cc1ccccc1)C1=NC(=[N+](Cc2ccccc2)c2ccccc2OC)c2ccccc21", "% Inhibition": 73, "Z score": -6.15}, {"smiles": "C1CCC2(CC1)OC[C@H](CN1CCOCC1)O2", "% Inhibition": -14, "Z score": 2.59}, {"smiles": "COc1ccccc1OCC(=O)Nc1ccc2c(c1)C(=O)Nc1cc(C)ccc1O2", "% Inhibition": 24, "Z score": -2.77}, {"smiles": "Cc1nc2ccccc2cc1OCc1ccc(F)cc1", "% Inhibition": 34, "Z score": -1.18}, {"smiles": "O=C(NS(=O)(=O)Oc1ccccc1)OC[C@@H]1CCCN2CCCCC12", "note": "(stereo not given in full)", "% Inhibition": -5, "Z score": 0.59}, {"smiles": "CCC1CN(C(=O)NC(C)c2noc(-c3ccccc3)n2)CC(C)O1", "note": "(stereo not given)", "% Inhibition": -11, "Z score": 1}, {"smiles": "CC(C)[C@@H]1N[C@@]2(C(=O)Nc3ccccc32)[C@@H]2C(=O)N(c3ccc(Br)cc3)C(=O)[C@@H]21", "% Inhibition": 8, "Z score": -0.81}, {"smiles": "Cc1c(-c2nc3ccccc3n2C)c2ccccc2n1CC(=O)O", "% Inhibition": 6, "Z score": -0.93}, {"smiles": "Cc1ccc(Cl)cc1NC(=O)N1Cc2cccn2-c2ccccc21", "% Inhibition": 3, "Z score": -0.4}, {"smiles": "Cc1nc2c(c(=O)n1C)CN(CC(=O)Nc1ccn(C)n1)C2", "% Inhibition": -8, "Z score": 1.37}, {"smiles": "COCCn1cnnc1CNc1nc(C)nc(C)c1C", "% Inhibition": -13, "Z score": 2.07}, {"smiles": "O=C(c1ccccc1)N1CCC(c2nc(C3CCOCC3)no2)CC1", "% Inhibition": -1, "Z score": 0.17}, {"smiles": "Cc1ccc(NC(=O)Cn2c(=O)n(CCc3cccs3)c(=O)c3ccccc32)c(C)c1", "% Inhibition": 27, "Z score": -3.08}, {"smiles": "Cc1nn(CCO)cc1CN1CC[C@H]1c1ccc(F)cc1", "% Inhibition": -17, "Z score": 2.2}, {"smiles": "O=C(CC(=O)N1CCC(c2nccs2)CC1)NCC(F)(F)F", "% Inhibition": 4, "Z score": -0.79}, {"smiles": "Cc1ccc(-c2nc(CNC(=O)CO)[nH]c2-c2ccccn2)cc1", "% Inhibition": -8, "Z score": 1.4}, {"smiles": "COC(=O)CC1(CC(=O)N2CCCC3(CC3)C2)CCCC1", "% Inhibition": -16, "Z score": 2.1}, {"smiles": "CCc1nc(C2CCN([C@@H](C)C(=O)N(C)Cc3cccc(F)c3)CC2)n[nH]1", "% Inhibition": -8, "Z score": 0.91}, {"smiles": "Cc1ccc([C@@H](C)CCN2CCCN(C(C)C)CC2)o1", "% Inhibition": 7, "Z score": -0.95}, {"smiles": "COCCn1cc(C(=O)Nc2cc(C)ccc2F)c(=O)cc1C", "% Inhibition": -23, "Z score": 2.55}, {"smiles": "C#CCN(CC#CC)CC(=O)Nc1nncs1", "% Inhibition": 4, "Z score": -0.57}, {"smiles": "O=C1CN(c2ccc(C(=O)NCC3(O)CCCCC3)cc2)C(=O)N1", "% Inhibition": -19, "Z score": 2.84}, {"smiles": "COc1cc(CNC2COCC2O)ccn1", "note": "(stereo not given)", "% Inhibition": -6, "Z score": 0.71}, {"smiles": "COc1cccc(C(=O)N2CCCN(C(=O)c3ccc(=O)n(C)n3)CC2)c1", "% Inhibition": -10, "Z score": 1.22}, {"smiles": "CCn1ccnc1[C@@H]1CC(=O)Nc2nc(N)ccc21", "% Inhibition": -10, "Z score": 1.82}, {"smiles": "Cc1nn(C)c(C)c1CCNC1C2CCCOC2C1(C)C", "note": "(stereo not given)", "% Inhibition": 0, "Z score": -0.06}, {"smiles": "CCC[C@H]1CN(S(=O)(=O)c2c(C)cc(C)c3nonc23)C[C@@H]1N", "% Inhibition": -17, "Z score": 1.54}, {"smiles": "Cc1ccsc1CNC(=O)c1cn([C@H]2CC[C@@H](N)CC2)nn1", "% Inhibition": -2, "Z score": 0.4}, {"smiles": "CN1C[C@H](CNC(=O)c2c(F)cccc2F)C2(CCCCC2)C1", "% Inhibition": 5, "Z score": -0.8}, {"smiles": "CCn1ccc(C(=O)N2C[C@H]3C[C@H](c4ccccc4)CC[C@@]3(C(=O)O)C2)n1", "% Inhibition": 1, "Z score": -0.19}, {"smiles": "CCOc1nc(C)ccc1-c1nc(-c2ccc(Br)o2)no1", "% Inhibition": -9, "Z score": 1.19}, {"smiles": "COc1cccc2nc(C[C@H]3CN(C4CCC4)CC[C@H]3CC(=O)O)[nH]c12", "% Inhibition": 12, "Z score": -1.45}, {"smiles": "Cc1ccc(C(C)C)c(Oc2ccc(Cl)cc2NC(=O)c2cc(Cl)ccc2O)c1", "% Inhibition": 16, "Z score": -1.95}, {"smiles": "CCN(C)c1ccccc1NC(=O)NC[C@H](C)CN1CCOCC1", "% Inhibition": -9, "Z score": 1.25}, {"smiles": "CC[C@H](C)N(CCNC(=O)Nc1cn(CC(C)C)c(=O)c2ccccc12)Cc1ccco1", "% Inhibition": -9, "Z score": 1.48}, {"smiles": "CCN1C[C@@H](S(=O)(=O)NCC2(CC)CC2)CC1=O", "% Inhibition": 15, "Z score": -1.74}, {"smiles": "O=C(OCc1ccccc1)[C@@H]1CCCN1C(=O)c1ccccn1", "% Inhibition": 4, "Z score": -0.54}, {"smiles": "COc1ccc(CNC(=O)CC[C@H]2CCCN(C)C2)c(OC)c1", "% Inhibition": 7, "Z score": -1.15}, {"smiles": "COCCn1cnnc1[C@H](C)NCc1ccc(OC)c(C)c1", "% Inhibition": -11, "Z score": 2.32}, {"smiles": "COc1ccc(NC(=O)c2sc3nc(C)c(C(=O)Nc4ccc(C)cc4C)c(-c4ccccc4Cl)c3c2N)cc1", "% Inhibition": 38, "Z score": -3.76}, {"smiles": "Cc1nccc(C(=O)OCc2c(C)nn(Cc3ccccc3)c2Cl)n1", "% Inhibition": -10, "Z score": 1.03}, {"smiles": "Cc1cn2nnc(C(=O)N3CCC(C(=O)N[C@H]4CCc5ccccc54)CC3)c2c(=O)[nH]1", "% Inhibition": -10, "Z score": 1.18}, {"smiles": "CCC(=O)n1nc(NCc2cccc3ccccc23)nc1NCc1cccc2ccccc12", "% Inhibition": -13, "Z score": 1.72}, {"smiles": "COc1cc(C(=O)N2CCC3(CCO3)CC2)ccc1Cl", "% Inhibition": -2, "Z score": 0.32}, {"smiles": "CCCc1cc(=O)n2nc(Cc3ccccc3)c(-c3ccccc3)c2[nH]1", "% Inhibition": 29, "Z score": -3.27}, {"smiles": "CC(C)Oc1ccc([C@H](C(=O)O)N(C)CCC2CCOCC2)cc1", "% Inhibition": -3, "Z score": 0.61}, {"smiles": "COCC(NC(=O)C1CC2C=CC1C2)C1CCCO1", "note": "(stereo not given)", "% Inhibition": 9, "Z score": -1.61}, {"smiles": "CC(=O)NCc1csc([C@H]2CCCN(S(=O)(=O)Cc3cc(F)cc(F)c3)C2)n1", "% Inhibition": -6, "Z score": 0.71}, {"smiles": "C[C@H](NC(=O)c1cccnc1)C(C)(C)C", "% Inhibition": -27, "Z score": 3.22}, {"smiles": "Cc1cc(C)c(C(=O)NC2CCN(C(=O)c3cc(F)cnc3O)CC2)o1", "% Inhibition": -8, "Z score": 0.98}, {"smiles": "CS(=O)(=O)N(Cc1cccs1)Cc1cccs1", "% Inhibition": -14, "Z score": 1.94}, {"smiles": "COc1ccc2c(c1)CCCN(c1nc(C)nc3[nH]ccc13)C2", "% Inhibition": -7, "Z score": 1.24}, {"smiles": "CC(C)(C)c1cc(-c2ccc(C#N)cc2)nc(NC2CC2)n1", "% Inhibition": 3, "Z score": -0.48}, {"smiles": "N#Cc1ccc(S(=O)(=O)N2CCC[C@H](n3nnc4ccccc43)C2)cc1", "% Inhibition": -19, "Z score": 1.7}, {"smiles": "Cc1ccsc1C(=O)Nc1ccnn1C1CCCC1", "% Inhibition": -9, "Z score": 1.67}, {"smiles": "COc1ccc2c(O)c(C(=O)NCCN(C)C)cnc2c1", "% Inhibition": -7, "Z score": 0.96}, {"smiles": "O=C(Cc1noc2ccccc12)N[C@H](c1cccs1)C1CCOCC1", "% Inhibition": 0, "Z score": -0.09}, {"smiles": "Cc1cc(=O)n(CCC2OCCO2)cc1Br", "% Inhibition": -1, "Z score": 0.17}, {"smiles": "CCn1c(N2CCC[C@H](C(=O)NCc3cccc(Cl)c3)C2)cc(=O)n(C)c1=O", "% Inhibition": -20, "Z score": 3.09}, {"smiles": "Cc1c(NC(=O)C2(c3cccs3)CCCCC2)nnn1C", "% Inhibition": -2, "Z score": 0.31}, {"smiles": "C[C@@H](Cn1cncn1)c1nc(C2(c3ccccc3)CC2)n[nH]1", "% Inhibition": 8, "Z score": -1.08}, {"smiles": "CC(=O)N1CCN(c2ccc(Nc3cc(C)nc4nc(-c5ccc(C)cc5)nn34)cc2Cl)CC1", "% Inhibition": -4, "Z score": 0.55}, {"smiles": "CC(C)c1n[nH]c2c1CN(C(=O)c1onc3c1CCCC3)CC2", "% Inhibition": -10, "Z score": 1.55}, {"smiles": "N#Cc1cccc(COC2CCCCC2)c1", "% Inhibition": -6, "Z score": 1.15}, {"smiles": "Fc1c(Cl)cccc1CNCc1ccc(C2OCCO2)cc1", "% Inhibition": -10, "Z score": 1.35}, {"smiles": "Cc1ccc2c(c1)C(=O)N(C)[C@@H](c1cn3ccccc3n1)N2", "% Inhibition": -19, "Z score": 2.47}, {"smiles": "CCCC(=O)c1cn(CC(=O)N2CCC[C@H]2c2nc(C)n[nH]2)c2ccccc12", "% Inhibition": -10, "Z score": 1.25}, {"smiles": "O=C1CCC(C(=O)N2CCC(OCCCc3ccccc3)C2)N1", "note": "(stereo not given)", "% Inhibition": -7, "Z score": 0.86}, {"smiles": "COc1ccccc1C1=NS(=O)(=O)N(C)C(C(=O)N2CCN(c3ccc(F)cc3)CC2)=C1", "% Inhibition": -4, "Z score": 0.74}, {"smiles": "CC(C)N1C[C@@H](CNC(=O)c2cncnc2)CC1=O", "% Inhibition": -10, "Z score": 1.38}, {"smiles": "Cc1csc(-c2nccn2CCc2nc(-c3cccnc3)n[nH]2)n1", "% Inhibition": 1, "Z score": -0.11}, {"smiles": "COc1ccc(-c2nccn2CCc2ccccn2)c(OC)c1", "% Inhibition": 1, "Z score": -0.25}, {"smiles": "Cn1nncc1NC(=O)N1CC(=O)NC[C@H]1c1ccccc1", "% Inhibition": 2, "Z score": -0.2}, {"smiles": "CCCCN([C@@H](C)c1ccccc1)S(=O)(=O)CC#N", "% Inhibition": 8, "Z score": -1.31}, {"smiles": "O=C(Nc1nn(Cc2ccccc2)cc1Cl)c1cc(-c2ccc(OC(F)F)cc2)[nH]n1", "% Inhibition": 38, "Z score": -5.18}, {"smiles": "COCCN(Cc1ccsc1)S(=O)(=O)Cc1cccc(C)c1", "% Inhibition": -2, "Z score": 0.45}, {"smiles": "NC(=O)c1cccnc1N1CCO[C@@H](Cc2ccccc2)C1", "% Inhibition": -10, "Z score": 0.96}, {"smiles": "Cc1nc(C)c([C@H](C)NC(=O)CCc2ccc(C(=O)O)cc2)s1", "% Inhibition": -7, "Z score": 0.97}, {"smiles": "CCCS(=O)(=O)N[C@@H](C)C(=O)NCc1cccnc1OC", "% Inhibition": 1, "Z score": -0.16}, {"smiles": "O=C(c1cncc(O)n1)N1C[C@@H]2CC[C@@H](C2)C1", "% Inhibition": -10, "Z score": 1.79}, {"smiles": "O=C(Nc1nc2c(s1)CN(C(=O)c1ccc(Cl)s1)CC2)[C@@H]1CCCO1", "% Inhibition": -12, "Z score": 1.7}, {"smiles": "COc1ccc(CN([C@@H](C)C2CC2)S(=O)(=O)N2CCCC2)cc1", "% Inhibition": -4, "Z score": 0.57}, {"smiles": "Cc1ccc(C)c(-n2c(=O)c3sccc3n(CC(=O)Nc3cc(C)on3)c2=O)c1", "% Inhibition": 6, "Z score": -0.86}]}]}
